# Assay results as given in the BET-seq Pho4 binding data (Le et al. 2018).
# This is one part of the list. These are noisy estimates, calculated here from bound and input reads.
# Biological target: T1, Pho4 (S. cerevisiae) (UniProt P07270)
# T1 sequence: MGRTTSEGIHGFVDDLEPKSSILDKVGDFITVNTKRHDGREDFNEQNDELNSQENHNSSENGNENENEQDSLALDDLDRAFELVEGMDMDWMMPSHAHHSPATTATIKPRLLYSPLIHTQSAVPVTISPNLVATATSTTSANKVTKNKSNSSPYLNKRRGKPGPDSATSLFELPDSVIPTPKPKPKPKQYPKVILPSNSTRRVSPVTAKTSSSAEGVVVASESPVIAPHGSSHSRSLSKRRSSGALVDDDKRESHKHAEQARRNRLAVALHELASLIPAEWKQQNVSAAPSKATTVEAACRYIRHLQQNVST
# Test: relative binding free energy (BET-seq); higher = weaker binding
# Conditions: reference: library average
row,Sequence,relative binding free energy [kcal/mol]
1,AAGGGCACGTGTATGT,-0.06
2,TGGATCACGTGATGAA,0.35
3,GGGGACACGTGTAGAG,0.16
4,ATCGGCACGTGGGGTT,-0.34
5,TAGATCACGTGGGGTC,0
6,GGACTCACGTGTAGGG,0.02
7,TGTACCACGTGGGTGT,-0.2
8,GCTTTCACGTGGAGTA,0.29
9,GGGCGCACGTGTTCGG,-0.07
10,GGAACCACGTGTAGGG,-0.04
11,AGATGCACGTGAGAGG,0.31
12,ATGAGCACGTGTATGT,-0.12
13,AGGAGCACGTGCAGAG,0
14,TATGGCACGTGGCTAT,-0.2
15,TGTAGCACGTGAGGTG,0.11
16,GTTAGCACGTGGAATT,0.17
17,GGTTACACGTGTCTGT,0.13
18,CGCGGCACGTGAAGTG,0.26
19,TGGGTCACGTGTGGCC,0.09
20,GAGGGCACGTGGTGAT,-0.03
21,TTTATCACGTGAGAAG,0.39
22,TGGGACACGTGTGAGC,0.14
23,GAAGGCACGTGTGGAT,0.13
24,CGCGTCACGTGGATGG,0.06
25,GGGGTCACGTGGTGTG,0.07
26,CGGGACACGTGGAGTT,0.11

row,Sequence,relative binding free energy [kcal/mol]
1,TGGGGCACGTGTTCGG,-0.12
2,GTAGGCACGTGGCGAT,-0.09
3,GTTTGCACGTGTAGAC,0.1
4,TTATCCACGTGTGGAG,0.15
5,TTTCGCACGTGATTGC,0.06
6,ATGTGCACGTGCAGGG,-0.14
7,ATAGGCACGTGAGAAT,0.12
8,GTTAGCACGTGGCCGT,-0.06
9,TGGGACACGTGTTATA,-0.02
10,CCGTTCACGTGGTGGA,0.16
11,TGTGACACGTGTAAGT,0.11
12,AGTTTCACGTGTAAAT,0.31
13,AGTAGCACGTGGCAAG,-0.14
14,CAGATCACGTGAGGGG,0.32
15,TCATGCACGTGTGGAA,0.01
16,CAGTGCACGTGAGGCG,0.11
17,GGTGTCACGTGCGCGG,-0.03
18,TAGTACACGTGGGGTT,-0.11
19,TGGACCACGTGGGGGT,-0.2
20,GGAGGCACGTGTTTTA,-0.1
21,TTGTGCACGTGTCACT,-0.05
22,CGTGGCACGTGGAATG,-0.08
23,GTGAGCACGTGAGCGG,-0.01
24,TATGCCACGTGAAGTT,0.22
25,TTGGTCACGTGGAAAA,0.21
26,ATTTTCACGTGCGAAT,0.29

row,Sequence,relative binding free energy [kcal/mol]
1,TTCGGCACGTGGGTAC,-0.04
2,ACGGGCACGTGTGGGA,-0.12
3,TTGTTCACGTGAATGA,0.45
4,AGGGGCACGTGGACTG,-0.09
5,TGAGGCACGTGTGAAA,0.18
6,TGGGGCACGTGAGACT,0.09
7,GATTGCACGTGTTGGA,0.06
8,TAAATCACGTGGGTGT,-0.07
9,CGCTTCACGTGGATGG,0.26
10,TGATGCACGTGTAGTG,0.01
11,CAGAGCACGTGGGATG,-0.2
12,ATGAGCACGTGCGGAT,-0.03
13,TTTTTCACGTGTAGAC,0.28
14,GGTTACACGTGCCGTT,0.14
15,TAAGGCACGTGGCTAT,-0.13
16,ATCCGCACGTGATGGT,0.19
17,AGCGACACGTGGGGGA,-0.22
18,TAATGCACGTGGGGCA,-0.18
19,GTGGGCACGTGCTTTT,-0.03
20,TGTGACACGTGTGGCT,-0.05
21,GGCTACACGTGTTTAG,0.19
22,GTGTACACGTGCAGGT,0.14
23,AGATTCACGTGAGAGG,0.46
24,TGGATCACGTGGGCTT,0.04
25,GTTGGCACGTGGGTGC,-0.1
26,ATTGCCACGTGGGATG,-0.21

row,Sequence,relative binding free energy [kcal/mol]
1,GGTGACACGTGAAGAT,0.3
2,TGATGCACGTGTTCTG,-0.05
3,CATGGCACGTGAAGGT,0.07
4,GCGAACACGTGGGTTT,0.07
5,AACTTCACGTGGTAGG,0.29
6,TTTTTCACGTGGAATC,0.35
7,GCTGTCACGTGCAGGT,0.05
8,GTGGGCACGTGTTCGC,-0.05
9,GGGTACACGTGCGGCA,0.12
10,CGGATCACGTGTGGGT,0.15
11,ATTGCCACGTGTAGTA,0
12,TATGTCACGTGAAGGT,0.2
13,TCTGTCACGTGGGTTG,-0.09
14,GCGTGCACGTGGTATG,-0.05
15,TAAATCACGTGAGTTG,0.42
16,AATTCCACGTGGGGAG,0.01
17,TTTGTCACGTGACGCT,0.22
18,GTCGTCACGTGGATAA,0.4
19,GGCGGCACGTGTTTGG,-0.04
20,AGGTACACGTGTTCTT,0.02
21,ATTGACACGTGAGATG,0.01
22,AGTCGCACGTGTTGAT,0.03
23,TATGGCACGTGGTCCT,-0.09
24,GCGGTCACGTGGTTGA,0.07
25,TGCGACACGTGGTGGT,-0.1
26,GGAGTCACGTGGTGCT,0.11

row,Sequence,relative binding free energy [kcal/mol]
1,ATGATCACGTGTTGAA,0.32
2,TATTACACGTGTGTAT,0.09
3,ATGTGCACGTGTATAG,-0.04
4,TGTCGCACGTGAGCGG,0.21
5,GTATGCACGTGGTGGG,-0.02
6,GTGAACACGTGAAATG,0.32
7,GGAGTCACGTGGGCGC,0.1
8,ATTGGCACGTGAAGGG,0
9,GTGTCCACGTGCGTGG,-0.03
10,CTAAGCACGTGGGGAG,-0.12
11,ATCAGCACGTGTGTGT,-0.19
12,CTATACACGTGGTTGA,-0.04
13,TGTTGCACGTGAACGG,0.21
14,TAATGCACGTGTTGTT,-0.08
15,AGAGTCACGTGTTGAT,0.14
16,TGTTTCACGTGAGGAT,0.46
17,TATTCCACGTGGGTGA,-0.14
18,GGTTGCACGTGCTGTA,-0.09
19,GTCGTCACGTGGAGGC,0.1
20,TAGCGCACGTGGTCGT,-0.22
21,GGACGCACGTGTGGTC,0.06
22,TTGTGCACGTGCAAGT,-0.12
23,GTGGTCACGTGTACGA,0.22
24,CGTTACACGTGCGGTG,-0.06
25,GTTCGCACGTGGGAGC,0.02
26,GTGTGCACGTGGATAG,0.05

row,Sequence,relative binding free energy [kcal/mol]
1,GATGGCACGTGTGTGC,0.02
2,TTTTGCACGTGGGCTA,-0.17
3,TGCTGCACGTGGTGGA,-0.25
4,GGATCCACGTGTAGTG,0.03
5,TATTGCACGTGGATGA,-0.06
6,TCTGTCACGTGGTTTT,0.16
7,TTTGGCACGTGTATGA,-0.06
8,AAAGTCACGTGGTTGA,0.11
9,TGTATCACGTGAATGG,0.22
10,ATTGACACGTGTTGCG,0.05
11,TTTCACACGTGTAGTT,0.11
12,GTGGTCACGTGATTGA,0.33
13,GTTCTCACGTGTGGTA,0.22
14,GGCTACACGTGATTGT,0.3
15,TAGGTCACGTGGGACT,0.06
16,TAATTCACGTGATGGA,0.09
17,GTGCTCACGTGCTGGT,0.18
18,CTGTACACGTGGTACG,0.1
19,CGATGCACGTGGCTGT,-0.1
20,TGGTGCACGTGGGCCG,-0.2
21,GGGTACACGTGTAAAA,0.4
22,GGCTACACGTGAGTTT,0.39
23,GGACTCACGTGATGGT,0.35
24,GGCTGCACGTGGTGTA,-0.07
25,ATTTTCACGTGTCGCG,0.36
26,TCTTGCACGTGCAGGG,0.09

row,Sequence,relative binding free energy [kcal/mol]
1,AAATGCACGTGTGGTT,-0.01
2,TTAGGCACGTGGGTCG,-0.23
3,ATTCACACGTGGGGGG,0.05
4,AAGTTCACGTGGAGCT,0.33
5,AGTCGCACGTGTGGAG,0.1
6,TGTAGCACGTGATAGT,0.02
7,TTTGACACGTGGTCGT,-0.11
8,GGATCCACGTGGGTGT,-0.08
9,GTAGTCACGTGGTGGC,0.09
10,AGTGACACGTGGTAAT,-0.27
11,GTTATCACGTGGCATT,0.05
12,GGTGGCACGTGCCCGG,-0.24
13,TGTGGCACGTGTTTCG,-0.07
14,TAAATCACGTGTTTGG,0.05
15,CGCGGCACGTGGAGGA,0.02
16,GTGCGCACGTGGCAGG,-0.11
17,TTCGGCACGTGGAGCG,-0.22
18,TACGTCACGTGCTTGG,-0.01
19,GGTGACACGTGAGGGC,0.28
20,GTTGGCACGTGCGGCG,-0.16
21,GAATGCACGTGCTGGG,0.1
22,GACGTCACGTGGTAGG,0.07
23,TGCAGCACGTGAGGCG,0.12
24,GGGGTCACGTGATAAG,0.18
25,CTTAACACGTGGGGGT,-0.19
26,GGTATCACGTGGGGCT,0.03

row,Sequence,relative binding free energy [kcal/mol]
1,AATTGCACGTGGCTTG,0.07
2,GTGTTCACGTGTGCTG,0.24
3,GGGTACACGTGATTGC,0.33
4,TGGAGCACGTGTATAT,0
5,GTTTACACGTGAGGCT,0.17
6,TCGGGCACGTGTTCGT,-0.16
7,TGGGTCACGTGCCTAG,0.05
8,TAATGCACGTGATGTG,0.04
9,TATGACACGTGTGTAT,0.02
10,GGATACACGTGGGCAT,-0.02
11,AGTAACACGTGTGGTG,-0.08
12,TTGAGCACGTGTGTCA,-0.09
13,TAGTTCACGTGCTTGG,0.23
14,TGTAACACGTGTTTGA,-0.05
15,TCTGGCACGTGGGGGT,-0.22
16,GTCGACACGTGTGTGT,0.13
17,GAGCACACGTGGGTTG,-0.07
18,ACGGGCACGTGATGGA,0.14
19,GGGGGCACGTGTCGTC,-0.21
20,AATTGCACGTGGATGA,0.08
21,TGTGTCACGTGGTGCA,-0.08
22,GGGTACACGTGTAGTC,0.08
23,TTGTGCACGTGACCGG,-0.1
24,GTGGCCACGTGAGGAG,0.15
25,ACTAACACGTGTTGGG,-0.04
26,TGAAACACGTGGTTTC,0.08

row,Sequence,relative binding free energy [kcal/mol]
1,TATGTCACGTGGTTAC,0.02
2,AATTGCACGTGCTGGA,-0.05
3,ATGGGCACGTGTGCAG,-0.06
4,TCTGGCACGTGTTTAT,-0.01
5,ATTGTCACGTGCGCTG,-0.02
6,GATTGCACGTGTGTAT,0.15
7,TTTAGCACGTGGGTCC,-0.05
8,TGGATCACGTGAGGAA,0.15
9,AATTACACGTGGGTGA,0
10,TAGGTCACGTGATTAG,0.17
11,GGTTGCACGTGCGGGC,0.02
12,TTCCTCACGTGGGTTT,0.2
13,TTGTGCACGTGACGGA,0.09
14,GGATACACGTGAGGCG,0.31
15,AGTTGCACGTGTCTGT,-0.04
16,TTAAGCACGTGGGCTT,-0.27
17,TCTGTCACGTGTGAGT,0.12
18,TGGAACACGTGAGCGT,0.14
19,TTAATCACGTGTGGCA,0.11
20,CGGTACACGTGGGGGT,-0.06
21,TTAATCACGTGCAGGG,0.03
22,GTTGGCACGTGTGATA,0.17
